Laboratory results published in PubChem BioAssay AID651820 (National Center for Advancing Translational Sciences (NCATS), 2012).
Several values for one entry are separate records, joined by “and”; a condition that tells them apart may be missing. Identical values can stand only once. About 12,000 (3.5%) of roughly 340,000 compounds were called active. The shares of active, inactive and inconclusive entries below differ from those in the screen. Calls follow the shape of the dose curve; as a rule, active = well fitted inhibition curve with a large enough effect; inconclusive = small, poorly fitted or top-dose-only effect, or another doubt; inactive = no such curve, though single readings can be large or run the other way. Where the call is inconclusive, the potency comes from a doubtful curve fit.

assay: qHTS Assay for Inhibitors of Hepatitis C Virus (HCV); conditions: Huh7.5.1 HCVcc-Cre (HCVcc is cell-culture hepatitis C virus) infection, luciferase reporter, 44 h; activity change, negative = inhibition: at 41.8 µM (top of the series) unless noted
In short: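 1,000 cells/well; 4 h culture; + compound; + HCVcc-Cre (~0.5 moi); 44 h; luciferase substrate, RT 15 min; read 15 sec.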
% is scaled to controls: 0 for no effect and ±100 for the full control effect; potency is read from the fitted curve at half-maximal effect; tags tell the direction and shape of the fitted curve.

SMILES | activity change, negative = inhibition | Potency
O=C(COC(=O)CNC(=O)c1ccccc1)Nc1ccc(Cl)cn1 | inactive: -13.4% | –
CCOc1ccccc1C(=O)Nc1cccc(-c2ccc(N3CCOCC3)nn2)c1 | – | inconclusive: 12.6 µM [inhibitor, partial curve, poor fit]
CC1CCCN(C(=O)C2CCN(S(=O)(=O)c3ccc4c(c3)CC(C)N4C(=O)C3CC3)CC2)C1 (configuration not stated) | – | inconclusive: 5.62 µM [inhibitor, single point]
CN1C(=O)C(=Cc2ccccc2OCCOc2ccc([N+](=O)[O-])cc2)C(=O)N(C)C1=O | inactive: 3.25% | –
Cc1ccc(/C=N/NC(=O)c2ccncc2)s1 | inactive: -6.91% | –
CCOC(=O)C1CCCN(c2ccc([N+](=O)[O-])c3nonc23)C1 (configuration not stated) | – | inconclusive: 31.6 µM [inhibitor, single point]
O=C(Nc1ccc(Cl)cc1)C1CCCC1 | inactive: -22.4% | –
Cc1sc2ncnc(NCC(c3ccco3)N3CCCC3)c2c1C (configuration not stated) | – | inconclusive: 22.4 µM [inhibitor, single point]
COC(=O)c1sccc1NC(=O)c1ccccc1C(=O)O | inactive: 0.372% | –
CCC1(C)NC(=O)N(CC(=O)Nc2cc(C)on2)C1=O (configuration not stated) | inactive: 7.15% | –
COc1cccc(-c2noc(CCCC(=O)NC3CCCC3)n2)c1 | – | inconclusive: 10 µM [inhibitor, partial curve]
O=C(N/N=C/c1ccoc1)c1ccccc1O | inactive: 7.68% | –
Cc1cccn2cc(COc3ccc(-c4ccccc4)cc3)nc12 | – | inconclusive: 31.6 µM [inhibitor, single point]
O=C(NCc1ccco1)c1ccc(NC(=O)C2COc3ccccc3O2)cc1 (configuration not stated) | – | inconclusive: 11.2 µM [inhibitor, single point]
CCOc1ccccc1CNC(=O)C1Cc2cc(S(=O)(=O)N3CCCCC3)ccc2N1C(C)=O (configuration not stated) | – | inconclusive: 31.6 µM [inhibitor, single point]
N#CCCN(C(=O)COC(=O)CCC(=O)c1cccs1)c1ccccc1 | inactive: 3.57% | –
COc1ccc(/C=N/NC(=O)C(=O)N2CCCCCC2)cc1O | inactive: 0.392% | –
COc1ccc(Cl)cc1NCC(=O)Nc1ccc(OC)c(S(=O)(=O)N2CCCCC2)c1 | – | inconclusive: 11.2 µM [inhibitor, partial curve]
COc1ccc2oc(/C=C/N(C)C)c(C(=O)c3ccc(Cl)cc3)c2c1 | – | inconclusive: 10 µM [inhibitor, partial curve]
CN1CCN(CCOC2c3ccccc3CSc3ccc(Cl)cc32)CC1 (configuration not stated) | – | inconclusive: 1.58 µM [inhibitor, full curve]
COc1ccc(C)cc1NC(=O)COC(=O)c1ccc2c(c1)OCO2 | – | inconclusive: 22.4 µM [inhibitor, single point]
CCCCNC(=O)c1ccc(CNc2c(N3CCC(C(=O)OCC)CC3)c(=O)c2=O)cc1 | – | inconclusive: 2.51 µM [inhibitor, full curve] and inconclusive: 5.62 µM [inhibitor, single point]
CC1=NN(c2ccccc2)C(=O)C1C=Nc1ccccc1O (configuration not stated) | – | inconclusive: 31.6 µM [inhibitor, single point]

SMILES | activity change, negative = inhibition | Potency
O=C(c1n[nH]c2ccccc12)N1CCN(S(=O)(=O)c2ccc3ccccc3c2)CC1 | – | inconclusive: 5.01 µM [inhibitor, full curve, poor fit]
COc1ccc(Nc2oc(COc3ccc(Cl)cc3)nc2C#N)cc1 | – | inconclusive: 14.1 µM [inhibitor, single point]
Cc1cccc(NC(=O)CCSc2nc(C)cc(C)n2)c1 | – | inconclusive: 31.6 µM [inhibitor, single point]
COc1ccc(NC(=O)Cn2c3ccc(OC)cc3c3nc4n(c(=O)c32)CCS4)cc1 | – | inconclusive: 31.6 µM [inhibitor, single point]
CCCN1C(=O)S/C(=C\c2ccc(N3CCOCC3)o2)C1=O | inactive: -20.1% | –
CCOC(=O)C1=CC[C@@H](c2ccccc2Cl)N(S(=O)(=O)c2ccc(C)cc2)[C@H]1C(=O)OCC | – | inconclusive: 14.1 µM [inhibitor, partial curve]
CCOC(=O)c1ccc(CNC(=O)CSc2nc(NC(=O)c3ccccc3)c3c(C)c(C)oc3n2)cc1 | – | inconclusive: 22.4 µM [inhibitor, single point]
Cc1cc(C(=O)COc2ccc(C#N)cc2)c(C)n1-c1ccc2c(c1)OCO2 | inactive: -19.8% | –
Cc1cc(-c2nn(-c3ccccc3F)cc2CN2CCCC(CO)C2)c(C)s1 (configuration not stated) | – | inconclusive: 22.4 µM [inhibitor, single point]
Cc1cc(NC(=O)CCN2C(=O)C3C4CCC(C4)C3C2=O)cc(C)c1Br (configuration not stated) | – | inconclusive: 31.6 µM [inhibitor, single point]
Cc1cc(-c2ccccc2)n2ncnc2n1 | inactive: -12.1% | –
CCSc1oc(-c2ccco2)nc1S(=O)(=O)c1ccc(C)cc1 | – | inconclusive: 11.2 µM [inhibitor, partial curve]
O=C(O)c1sccc1Oc1ccc(NS(=O)(=O)c2cccc(F)c2)cc1 | inactive: 15.6% | –
COc1cc(/C=C2/CCc3ccccc3C2=O)cc(OC)c1OC | – | inconclusive: 12.6 µM [inhibitor, partial curve, poor fit]
Nc1ccc(C(=O)N/N=C\c2cc(N=Nc3cccc4ccccc34)ccc2O)cc1 | – | active: 11.2 µM
CCOc1cc2[nH]c(=S)n(C3CCN(Cc4ccccc4)CC3)c(=O)c2cc1OCC | inactive: 4.53% | –
COC(=O)C1=C(c2ccc(-c3ccccc3)c(F)c2)C[C@@H]2CC[C@H]1N2C(=O)N1CCCCC1 | – | inconclusive: 2.82 µM [inhibitor, full curve]
CCOc1ccccc1N1CCN(C(=O)c2cc3ccccc3cc2OC)CC1 | – | inconclusive: 5.62 µM [inhibitor, full curve]
COCCn1c(C)cc(C(=O)COC(=O)c2ccc(S(=O)(=O)N(C)C)cc2)c1C | inactive: -2.43% | –
CCOC(=O)c1sc2nc(C)cc(C)c2c1N | – | inconclusive: 35.5 µM [inhibitor, partial curve]
O=C1C(Cl)=C(Nc2ccc(O)cc2)C(=O)c2ccccc21 | – | inconclusive: 10 µM [inhibitor, partial curve]
CCn1nc(C)c(NC(=O)/C=C/c2ccc(OC)c(COc3ccc(Br)cc3)c2)c1C | – | inconclusive: 11.2 µM [inhibitor, partial curve]
COc1cc(C#Cc2c(C=O)n(C)c3ccccc23)cc(OC)c1 | – | inconclusive: 2.82 µM [inhibitor, partial curve]

SMILES | activity change, negative = inhibition | Potency
Cc1ccc(S(=O)(=O)Nc2ccc3c(c2)C(=O)N([C@H](C)CO)C[C@H](C)[C@@H](CN(C)C(=O)Nc2ccc(C(F)(F)F)cc2)O3)cc1 | – | active: 12.6 µM
COc1ccc(C(C)=O)cc1CSc1nc2ccccc2c(=O)n1-c1ccccc1C | – | inconclusive: 6.31 µM [inhibitor, partial curve]
CCN1CCN(CCCNC(=O)CCc2nc(-c3ccc(OC)cc3)no2)CC1 | inactive: -9.3% | –
O=C(NCCCCc1ccccc1)C12CN(Cc3ccccc3)CC1C(c1cccc([N+](=O)[O-])c1)=NO2 (configuration not stated) | – | inconclusive: 20 µM [inhibitor, single point]
CCc1nc2sc3c(O)cc(=O)[nH]c3c2cc1C | inactive: 1.83% | –
Cc1c(NC(=O)/C(C#N)=C/c2ccc(-c3cccc(Cl)c3)o2)c(=O)n(-c2ccccc2)n1C | – | inconclusive: 8.91 µM [inhibitor, partial curve, poor fit]
O=C(Nc1ccccc1F)C1(c2ccccc2)CC1(Cl)Cl (configuration not stated) | inactive: -1.48% | –
CCc1ccc(-c2nc(NC(=O)c3ccc(OCC(=O)Nc4ccc(F)cc4)c(OC)c3)sc2C)cc1 | – | inconclusive: 5.62 µM [inhibitor, single point]
COc1cccc(Cl)c1NC(=O)N1CCN(c2ccnc3cc(Cl)ccc23)CC1 | – | inconclusive: 31.6 µM [inhibitor, single point]
COc1cc(N2N=C(c3ccccc3)CC2c2ccccc2)c(C=O)cc1C=O (configuration not stated) | – | inconclusive: 31.6 µM [inhibitor, single point]
CC1CCCN(C(=O)CNC(=O)c2sc3ccccc3c2Cl)C1 (configuration not stated) | – | inconclusive: 31.6 µM [inhibitor, single point]
COC(=O)c1cc(-c2c(-c3cc(OC)c(OC)c(OC)c3)noc2C)cc([N+](=O)[O-])c1 | inactive: -11.9% | –
O=C(Nc1cccc(-c2cn3cccnc3n2)c1)c1ccc2c(c1)OCO2 | – | inconclusive: 0.562 µM [inhibitor, partial curve, poor fit]
Cc1ccc(CN2CCN(C(=O)CCC(=O)Nc3nnc(C(C)C)s3)CC2)c(C)c1 | – | inconclusive: 17.8 µM [inhibitor, partial curve]
CCOc1ccc(OCc2ccc(C(=O)N(C)c3ccccc3)o2)cc1 | – | inconclusive: 14.1 µM [inhibitor, single point]
COC(=O)[C@@]12CCCN1[C@H](c1ccc(-c3ccc(OC)cc3)c(OC)c1)[C@@H]1C(=O)N(C)C(=O)[C@@H]12 | – | inconclusive: 31.6 µM [inhibitor, single point]
COc1ccccc1OCC(=O)NNC(=O)CCCC(=O)NNC(=O)COc1ccccc1OC | inactive: 12.5% | –
CC(=O)c1cccc(NC(=O)c2c(F)c(F)c(F)c(F)c2F)c1 | – | inconclusive: 31.6 µM [inhibitor, single point]
COc1cc(OC)c(NC(=O)c2cccc(F)c2)cc1Cl | – | inconclusive: 5.01 µM [inhibitor, full curve]
CC(C)c1ccc2oc(-c3cc(N)ccc3O)nc2c1 | – | inconclusive: 11.2 µM [inhibitor, single point]
CCOc1cc(N2CCOCC2)c(OCC)cc1NC(=O)CN1CCc2ccccc2C1 | – | inconclusive: 11.2 µM [inhibitor, partial curve]
